Sequences and labels used below:
B1: PhoQ; a variant is named by its letters at X, in order, P23837 (parent)
chain: MKKLLRLFFPLSLRVRFLLATAAVVLVLSLAYGMVALIGYSVSFDKTTFRLLRGESNLFYTLAKWENNKLHVELPENIDKQSPTMTLIYDENGQLLWAQRDVPWLMKMIQPDWLKSNGFHEIEADVNDTSLLLSGDHSIQQQLQEVREDDDDAEMTHSVAVNVYPATSRMPKLTIVVVDTIPVELKSSYMVWSWFIYVLSANLLLVIPLLWVAAWWSLRPIEALAKEVRELEEHNRELLNPATTRELTSLVRNLNRLLKSERERYDKYRTTLTDLTHSLKTPLXXLQXXLRSLRSEKMSVSDAEPVMLEQISRISQQIGYYLHRASMRGGTLLSRELHPVAPLLDNLTSALNKVYQRKGVNISLDISPEISFVGEQNDFVEVMGNVLDNACKYCLEFVEISARQTDEHLYIVVEDDGPGIPLSKREVIFDRGQRVDTLRPGQGVGLAVAREITEQYEGKIVAGESMLGGARMEVIFGRQHSAPKDE

This is one part of the list.

Variants of B1 are the subject of this assay. Put plainly: enrichment ratio after two sorts for PhoP signalling (ratio (wild type AVST 3.29)); higher = more functional. To be noted: with PhoP (E. coli).
As to LHYV, the enrichment ratio was not above 0.25. To IYEG belongs not above 0.25; to ILSW, not above 0.25; to KRRC, not above 0.25.

With RVGQ, the enrichment ratio is not above 0.25. In the case of YELH, the enrichment ratio was 3.24. Consider LWNC, for which the enrichment ratio is not above 0.25.

In the case of LWRF, the enrichment ratio was not above 0.25.

As for PTQW, the enrichment ratio was not above 0.25. To NFAQ belongs not above 0.25; to ALSL, 10.6.

As to GWTW, the enrichment ratio was not above 0.25.

For PRLP, the enrichment ratio was not above 0.25. To MHES belongs not above 0.25. To KTVF belongs not above 0.25; to WTQC, not above 0.25. For the variant TFWW, the enrichment ratio is not above 0.25. To VANS belongs not above 0.25; to AASA, 0.844; to VMAR, not above 0.25. To WCRS belongs not above 0.25; to CLCK, not above 0.25; to NWNG, not above 0.25.

Consider DRKF, for which the enrichment ratio is not above 0.25. Consider ALFK, for which the enrichment ratio was not above 0.25.

Turning to LMLS, the enrichment ratio is not above 0.25. FDIV: the enrichment ratio turned out to be 0.676. For the variant QLFS, the enrichment ratio was not above 0.25. To QPAH belongs not above 0.25; to LVTL, not above 0.25; to LGEQ, not above 0.25. To PLDS belongs not above 0.25.

Regarding MYQE, the enrichment ratio was not above 0.25. To RNHW belongs not above 0.25.

As to QDGR, the enrichment ratio is not above 0.25. To FDQY belongs not above 0.25; to FGWV, not above 0.25; to MIIR, not above 0.25. IIGI: the enrichment ratio is not above 0.25.

As to KTIC, the enrichment ratio was not above 0.25. Regarding KCPK, the enrichment ratio is not above 0.25. To GGLF belongs 4.95. RMEP: the enrichment ratio is not above 0.25. To PNIE belongs not above 0.25; to INAT, not above 0.25; to RDHS, not above 0.25. To NWNV belongs not above 0.25; to IMMD, not above 0.25.

For IPGE, the enrichment ratio was not above 0.25. To KQFE belongs not above 0.25; to WVCG, not above 0.25. Consider QMTK, for which the enrichment ratio was not above 0.25. To RFYP belongs not above 0.25; to RCTP, not above 0.25. To RLSD belongs not above 0.25. NFPA: the enrichment ratio was not above 0.25. On to QEFG, for which the enrichment ratio is 30.8.

LNRK: the enrichment ratio was not above 0.25.

Turning to VKGI, the enrichment ratio is not above 0.25. To SPLL belongs not above 0.25; to HGGS, not above 0.25; to VNCM, 4.53. To TTFT belongs 2.36; to EDDD, not above 0.25; to IWLS, not above 0.25. To LYQP belongs not above 0.25.

Consider IKSF, for which the enrichment ratio is not above 0.25.

APPE: the enrichment ratio was not above 0.25.

As to GNMN, the enrichment ratio is not above 0.25.

Regarding ARTE, the enrichment ratio is not above 0.25. To EPCK belongs not above 0.25; to HPPN, not above 0.25.

With EEFF, the enrichment ratio is not above 0.25. For VWFS, the enrichment ratio was not above 0.25. For the variant WSSK, the enrichment ratio is not above 0.25.

For NCYG, the enrichment ratio is not above 0.25. Regarding MLQR, the enrichment ratio is not above 0.25.

Take ADNA: the enrichment ratio is not above 0.25. To WFQR belongs not above 0.25; to FNHK, not above 0.25.

PPVC: the enrichment ratio was not above 0.25.

As to MPYR, the enrichment ratio was not above 0.25. Turning to PGPK, the enrichment ratio is not above 0.25. To PHTN belongs not above 0.25; to AMGK, not above 0.25. To RNHD belongs not above 0.25; to HRRK, not above 0.25. To RPLK belongs not above 0.25; to GHSN, not above 0.25; to MLYF, not above 0.25. On to HFMA, for which the enrichment ratio was not above 0.25. For YQWD, the enrichment ratio is not above 0.25. To AWSE belongs not above 0.25.

Regarding VMVT, the enrichment ratio is not above 0.25. To TYEH belongs not above 0.25; to LRAI, not above 0.25. Turning to IEAQ, the enrichment ratio is not above 0.25.

On to AYHL, for which the enrichment ratio is not above 0.25. To MLMK belongs not above 0.25; to DLHA, not above 0.25; to NDRF, not above 0.25. To RRWC belongs not above 0.25; to YPIS, not above 0.25; to IEMA, not above 0.25. To FHNQ belongs not above 0.25. In the case of AAGT, the enrichment ratio was not above 0.25. To VHEH belongs not above 0.25; to CPYS, not above 0.25.

As to WGSL, the enrichment ratio is not above 0.25. As for YCWW, the enrichment ratio was not above 0.25.

Consider DITM, for which the enrichment ratio is not above 0.25. Regarding HNWW, the enrichment ratio is not above 0.25. To MYCV belongs 0.342; to CVLL, not above 0.25; to RVNF, not above 0.25. To GSGQ belongs not above 0.25; to QIRF, not above 0.25. To QSFK belongs not above 0.25. VLQF: the enrichment ratio was not above 0.25. To EMGC belongs not above 0.25. To DCHD belongs not above 0.25. To EMWA belongs not above 0.25; to EICY, not above 0.25; to GYTQ, not above 0.25. Consider ERLP, for which the enrichment ratio was not above 0.25. To MRFT belongs not above 0.25; to KYNG, not above 0.25.

LAKC: the enrichment ratio is not above 0.25. To KVDP belongs not above 0.25; to KRMK, not above 0.25; to PERS, not above 0.25. To NLFM belongs not above 0.25; to KTLQ, not above 0.25.

As for TWMK, the enrichment ratio was not above 0.25. To YQHW belongs not above 0.25; to DHFS, not above 0.25; to EPAD, not above 0.25.

As for AWVC, the enrichment ratio was not above 0.25. To VSKK belongs not above 0.25; to QEVY, not above 0.25; to MPAI, not above 0.25.

As for PTDM, the enrichment ratio is not above 0.25. To AGLQ belongs 13.5; to PHWN, not above 0.25; to IWTA, not above 0.25. To GNFI belongs 0.579; to SLVH, 2.06. Consider ACGF, for which the enrichment ratio turned out to be 6.85. As for NEHL, the enrichment ratio is not above 0.25. Take ASVN: the enrichment ratio came out at 7.54. To LNRS belongs not above 0.25; to LIRL, not above 0.25. To IMAL belongs not above 0.25. To FGTR belongs not above 0.25; to YKTP, not above 0.25.

As for MAQN, the enrichment ratio was not above 0.25.

With DFWS, the enrichment ratio is not above 0.25. To GHLG belongs not above 0.25; to HHTW, not above 0.25. To LDYE belongs not above 0.25; to SRTD, not above 0.25. Take SWKF: the enrichment ratio is not above 0.25. To LIKV belongs not above 0.25. HPIA: the enrichment ratio was not above 0.25. To MTSE belongs not above 0.25; to WKAQ, not above 0.25; to REFQ, 0.489.

As to MQYI, the enrichment ratio is not above 0.25. To RQDL belongs not above 0.25. To MKCT belongs not above 0.25; to NFHP, not above 0.25. To SKHE belongs not above 0.25. For HYRQ, the enrichment ratio was not above 0.25. Consider QPYH, for which the enrichment ratio was not above 0.25. To HESI belongs not above 0.25. To TPSS belongs not above 0.25; to RLQF, not above 0.25; to YDVH, not above 0.25. To ARRH belongs not above 0.25; to MRCK, not above 0.25; to MPAG, not above 0.25. RTFP: the enrichment ratio was not above 0.25. To QHMF belongs not above 0.25; to KLAM, not above 0.25; to RGMF, not above 0.25. To IENI belongs not above 0.25; to DGNT, not above 0.25. For TSGM, the enrichment ratio came to 19.2. To HVKD belongs not above 0.25; to RMAR, not above 0.25; to MAYM, 9.25. To EPKP belongs not above 0.25.

On to KDFM, for which the enrichment ratio is not above 0.25. To ILMY belongs not above 0.25; to YPKG, not above 0.25; to PGLW, not above 0.25.

With MQYK, the enrichment ratio is not above 0.25. To SETK belongs not above 0.25; to GNNA, not above 0.25.

With KLEM, the enrichment ratio was not above 0.25. To NCFK belongs not above 0.25; to RRIL, not above 0.25. To CFLH belongs not above 0.25. To SRTS belongs not above 0.25; to TIIT, not above 0.25; to SQSI, 16.7. On to WAMV, for which the enrichment ratio is not above 0.25. To LVMG belongs not above 0.25; to TQKE, not above 0.25. MNDV: the enrichment ratio was not above 0.25. To HRGT belongs not above 0.25; to QHLV, not above 0.25. On to SPCK, for which the enrichment ratio was not above 0.25. To IRPM belongs not above 0.25; to NNIW, not above 0.25.

Regarding MSGW, the enrichment ratio was not above 0.25. To YPRF belongs not above 0.25; to YNMP, not above 0.25; to RCNC, not above 0.25.

As to NIFE, the enrichment ratio is not above 0.25. To EPLD belongs not above 0.25; to MSHC, 1.32; to QQRG, not above 0.25. Consider IQWE, for which the enrichment ratio was not above 0.25. To RAGL belongs not above 0.25; to YLVE, not above 0.25; to PDVF, not above 0.25. To VLFA belongs not above 0.25; to RGWP, not above 0.25; to GPNQ, not above 0.25.

For VMRD, the enrichment ratio was not above 0.25. To VSWY belongs 2.67; to RFQS, not above 0.25; to IMKA, not above 0.25.

For the variant EICC, the enrichment ratio was not above 0.25. To YANN belongs not above 0.25; to KMAL, not above 0.25; to LIQA, not above 0.25.

Turning to VHGP, the enrichment ratio is not above 0.25. In the case of ACWM, the enrichment ratio is not above 0.25.

Take EPGE: the enrichment ratio was not above 0.25.

Regarding YTAG, the enrichment ratio is not above 0.25. To HHFI belongs not above 0.25; to ANYM, 0.253.

Consider ASEM, for which the enrichment ratio is not above 0.25.

For the variant VFWL, the enrichment ratio was not above 0.25. Consider IKRQ, for which the enrichment ratio was not above 0.25. To HERD belongs not above 0.25; to TKCR, not above 0.25; to DVNF, not above 0.25.

As to GWHH, the enrichment ratio was not above 0.25.

On to IGSR, for which the enrichment ratio is not above 0.25. To QGFT belongs 0.259; to IPLK, not above 0.25; to FQHQ, not above 0.25. To PYRY belongs not above 0.25.

Regarding SDFN, the enrichment ratio was not above 0.25.

For the variant WPPE, the enrichment ratio was not above 0.25. For TIST, the enrichment ratio amounted to 12.7. To GAFF belongs not above 0.25.

Take KACG: the enrichment ratio was not above 0.25. To QHWH belongs not above 0.25; to HYCH, not above 0.25. For HIAV, the enrichment ratio is not above 0.25.

As for IIKW, the enrichment ratio is not above 0.25. To YDSV belongs not above 0.25; to KFQE, not above 0.25. For GHRK, the enrichment ratio was not above 0.25.

Take GDPE: the enrichment ratio was not above 0.25. To KDTW belongs not above 0.25; to TMEG, not above 0.25; to DRWA, not above 0.25. To VSHK belongs not above 0.25; to HKHC, not above 0.25; to ANSG, 8.67. To EHPN belongs not above 0.25; to MLCT, not above 0.25. Consider MLKM, for which the enrichment ratio was not above 0.25. To SPVA belongs not above 0.25; to CFLS, 1.8; to TNPA, not above 0.25. To QNVR belongs not above 0.25; to KHAT, not above 0.25. In the case of VFEK, the enrichment ratio was not above 0.25. To RYDQ belongs not above 0.25; to TPNE, not above 0.25. To YTYS belongs not above 0.25; to DKYI, not above 0.25; to WQCI, not above 0.25.

Regarding TIDR, the enrichment ratio was not above 0.25. To KIDR belongs not above 0.25; to FKAE, not above 0.25.

On to AATG, for which the enrichment ratio stood at 7.22. To PVWD belongs not above 0.25; to WEYQ, not above 0.25. To SFPG belongs not above 0.25.

Regarding IQSA, the enrichment ratio was not above 0.25. To LDKM belongs not above 0.25; to FNGD, not above 0.25. To VNIC belongs not above 0.25. With LQAL, the enrichment ratio was not above 0.25.

Turning to HHHL, the enrichment ratio was not above 0.25. To FCPL belongs not above 0.25; to YNGI, not above 0.25; to MVMY, not above 0.25.

For the variant TRCH, the enrichment ratio was found to be 3.09.
